For one assay, the system named is HSkMC. Put plainly: cytotoxicity call (relative viability < 0.9). The note with it: 10 µM.
For the next assay, the system named is HepG2. The assay can be described thus: cytotoxicity call (relative viability < 0.9). Conditions: 10 µM.
A further assay concerns S. aureus RN4220. The assay can be described thus: growth inhibition call (relative growth <= 0.2). Conditions: 50 µM.

We go through 27 molecules from the antibiotic and cytotoxicity screens of Wong et al. (2023).

Molecules are shown by their SMILES. The list shows a part of the results.

For `C[C@@H]1CCCCO[C@H](CN(C)C(=O)CCC(F)(F)F)[C@@H](C)CN([C@H](C)CO)C(=O)c2cc(NS(=O)(=O)c3ccc(Cl)cc3)ccc2O1`, the cytotoxicity call in the assay on HSkMC and with HepG2 was “inactive” in each case. In the assay with S. aureus RN4220, the growth inhibition call is “inactive”.
As for `COc1cccc(S(=O)(=O)N[C@H]2C=C[C@@H](CC(=O)NC3CCC3)O[C@@H]2CO)c1`, the cytotoxicity call in the assay with HSkMC and with HepG2 was “inactive” each time. In addition, the growth inhibition call in the assay with S. aureus RN4220 was “inactive”.
Take `COc1ccc(NC(=O)N(C)C[C@@H]2Oc3ncc(C#C[C@@H](C)O)cc3C(=O)N([C@@H](C)CO)C[C@@H]2C)cc1`: the cytotoxicity call with HSkMC and in the assay on HepG2 was “inactive” each time. The growth inhibition call in the assay on S. aureus RN4220 is “inactive”.
As for `CC(C)CC#Cc1ccc2c(c1)O[C@@H](CN(C)S(=O)(=O)c1cccc(F)c1)[C@@H](C)CN([C@@H](C)CO)S2(=O)=O`, the cytotoxicity call in the assay on HSkMC and in the assay with HepG2 was “inactive” throughout. In addition, the growth inhibition call in the assay with S. aureus RN4220 was “inactive”.
On to `COCC(=O)N1C[C@]2(C1)CN([C@H](CO)c1[nH]c3cc(ccc3c12)OC)S(=O)(=O)C`, for which the cytotoxicity call in the assay with HSkMC and in the assay with HepG2 was “inactive” throughout. Besides, in the assay on S. aureus RN4220, the growth inhibition call was “inactive”.
For the molecule `C[C@@H]1CN([C@@H](C)CO)C(=O)c2cc(NC(=O)CCN3CCOCC3)ccc2O[C@H]1CN(C)C(=O)Nc1ccc2c(c1)OCO2`, the cytotoxicity call with HSkMC and in the assay on HepG2 was “inactive” each time. Besides, the growth inhibition call in the assay on S. aureus RN4220 is “inactive”.
For the molecule `CC(=O)O[C@H]1CCS(=O)(=O)C1`, the cytotoxicity call with HSkMC and with HepG2 was “inactive” throughout. Also, in the assay on S. aureus RN4220, the growth inhibition call is “inactive”.
Consider `COc1ccc(S(=O)(=O)Nc2ccc3c(c2)CC(=O)N([C@@H](C)CO)C[C@@H](C)[C@@H](CN(C)C)O3)cc1`, for which the cytotoxicity call in the assay with HSkMC and in the assay with HepG2 was “inactive” throughout. Besides, the growth inhibition call in the assay on S. aureus RN4220 is “inactive”.
On to `COc1ccc(NC(=O)Nc2ccc3c(c2)[C@H]2C[C@@H](CC(=O)NCc4ccccn4)O[C@@H](CO)[C@H]2O3)cc1`, for which the cytotoxicity call with HSkMC and in the assay with HepG2 was “inactive” throughout. For the same molecule, the growth inhibition call in the assay on S. aureus RN4220 was “inactive”.
With `Cc1ccc(S(=O)(=O)N(C)C[C@@H]2OCCCC[C@@H](C)Oc3ccc(NC(=O)Nc4ccc5c(c4)OCO5)cc3C(=O)N([C@@H](C)CO)C[C@@H]2C)cc1`, the cytotoxicity call in the assay on HSkMC and with HepG2 was “inactive” each time. Moreover, the growth inhibition call in the assay on S. aureus RN4220 is “inactive”.
For the molecule `Cc1ccc(-c2ccc3c(c2)O[C@H](CN(C)Cc2cncnc2)[C@H](C)CN([C@H](C)CO)S3(=O)=O)cc1`, the cytotoxicity call in the assay with HSkMC and with HepG2 was “inactive” throughout. In addition, the growth inhibition call with S. aureus RN4220 was “inactive”.
For `CC(C)NC(=O)N(C)C[C@@H]1OCCCC[C@@H](C)Oc2ccc(NS(=O)(=O)c3cn(C)cn3)cc2C(=O)N([C@@H](C)CO)C[C@H]1C`, the cytotoxicity call in the assay with HSkMC and in the assay on HepG2 was “inactive” in each case. In addition, the growth inhibition call in the assay on S. aureus RN4220 was “inactive”.
For `C[C@@H]1CCCCO[C@@H](CN(C)CC2CC2)[C@H](C)CN([C@@H](C)CO)C(=O)c2cc(NS(C)(=O)=O)ccc2O1`, the cytotoxicity call in the assay with HSkMC and with HepG2 was “inactive” in each case. Further, the growth inhibition call in the assay with S. aureus RN4220 is “inactive”.
For the molecule `COc1ccc(S(=O)(=O)N(C)C[C@@H]2OCCCC[C@H](C)Oc3ccc(NS(=O)(=O)c4ccc(Cl)cc4)cc3C(=O)N([C@@H](C)CO)C[C@@H]2C)cc1`, in the assay with HSkMC, the cytotoxicity call is “inactive”. In addition, the cytotoxicity call in the assay on HepG2 is “active”. Moreover, the growth inhibition call in the assay on S. aureus RN4220 was “inactive”.
As to `C[C@@H]1CCCCO[C@H](CN(C)C(=O)Nc2ccc3c(c2)OCO3)[C@H](C)CN([C@H](C)CO)C(=O)c2cc(NC(=O)c3ccncc3)ccc2O1`, the cytotoxicity call in the assay with HSkMC and with HepG2 was “inactive” each time. In addition, in the assay on S. aureus RN4220, the growth inhibition call was “inactive”.
As to `C[C@@H]1CCCCO[C@H](CN(C)C)[C@H](C)CN([C@H](C)CO)C(=O)c2cc(NC(=O)Nc3ccc(C(F)(F)F)cc3)ccc2O1`, the cytotoxicity call in the assay on HSkMC was “inactive”. Besides, the cytotoxicity call in the assay on HepG2 was “active”. The growth inhibition call in the assay with S. aureus RN4220 is “inactive”.
Consider `CN(C)CCCNC(=O)C[C@H]1CC[C@@H](NS(=O)(=O)c2ccccc2)[C@H](CO)O1`, for which the cytotoxicity call in the assay on HSkMC and in the assay with HepG2 was “inactive” each time. In the assay on S. aureus RN4220, the growth inhibition call was “inactive”.
On to `C[C@@H]1CN([C@@H](C)CO)C(=O)Cc2cc(NC(=O)c3ccncc3)ccc2O[C@H]1CN(C)S(=O)(=O)c1ccc(F)cc1`, for which the cytotoxicity call in the assay on HSkMC and with HepG2 was “inactive” in each case. The growth inhibition call in the assay on S. aureus RN4220 was “inactive”.
As to `CCCNC(=O)N1C[C@]2(CN(C2)S(=O)(=O)c2ccc(cc2)OC)c2c(n(c3cc(ccc23)OC)C)[C@H]1CO`, the cytotoxicity call in the assay with HSkMC and with HepG2 was “inactive” in each case. Besides, the growth inhibition call with S. aureus RN4220 was “inactive”.
For the molecule `C[C@@H]1CCCCO[C@H](CN(C)Cc2ccncc2)[C@H](C)CN([C@H](C)CO)C(=O)c2cc(NC(=O)Cc3ccccc3)ccc2O1`, the cytotoxicity call in the assay on HSkMC and with HepG2 was “inactive” throughout. Further, the growth inhibition call in the assay with S. aureus RN4220 was “inactive”.
As for `CCSc1cccc2cccnc12`, the cytotoxicity call with HSkMC and in the assay on HepG2 was “inactive” throughout. In addition, in the assay on S. aureus RN4220, the growth inhibition call is “inactive”.
Regarding `Cc1ccc(S(=O)(=O)Nc2cccc3c2O[C@@H](CN(C)CC2CC2)[C@H](C)CN([C@@H](C)CO)C3=O)cc1`, the cytotoxicity call in the assay on HSkMC and with HepG2 was “inactive” each time. Also, the growth inhibition call with S. aureus RN4220 is “inactive”.
For `CC(C)(C)OC(=O)N1CC[C@H](c2cn(-c3ccc(C(F)(F)F)cc3)nn2)[C@@H]1C(=O)Nc1cccc2cccnc12`, the cytotoxicity call in the assay with HSkMC and in the assay with HepG2 was “inactive” throughout. For the same molecule, the growth inhibition call in the assay with S. aureus RN4220 was “inactive”.
With `C[C@@H]1CN([C@H](C)CO)C(=O)c2cccc(NC(=O)Nc3ccc(C(F)(F)F)cc3)c2O[C@H]1CN(C)Cc1ccc(C(F)(F)F)cc1`, in the assay on HSkMC (human skeletal muscle cells), the cytotoxicity call is “inactive”. The cytotoxicity call with HepG2 is “active”. For the same molecule, the growth inhibition call in the assay on S. aureus RN4220 is “inactive”.
Consider `C[C@H]1CN([C@@H](C)CO)C(=O)Cc2cc(NC(=O)Nc3ccc(Cl)c(Cl)c3)ccc2O[C@H]1CN(C)S(=O)(=O)c1ccc(Oc2ccccc2)cc1`, for which the cytotoxicity call with HSkMC and in the assay with HepG2 was “inactive” in each case. In addition, the growth inhibition call with S. aureus RN4220 is “inactive”.
Take `C[C@@H]1CCCCO[C@@H](CN(C)Cc2ccc(C(F)(F)F)cc2)[C@@H](C)CN([C@H](C)CO)C(=O)c2cc(NC(=O)Nc3ccc4c(c3)OCO4)ccc2O1`: the cytotoxicity call with HSkMC and in the assay with HepG2 was “inactive” throughout. In the assay with S. aureus RN4220, the growth inhibition call is “inactive”.
As for `CN1CCN(C(=O)C[C@@H]2C=C[C@H](NC(=O)Nc3ccccc3F)[C@H](CO)O2)CC1`, the cytotoxicity call with HSkMC and in the assay with HepG2 was “inactive” throughout. Moreover, the growth inhibition call in the assay on S. aureus RN4220 is “inactive”.
